Test results: the supplement of paper PMC5655136
Values come from read counts of a selection and are noisy.
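Further: shRNA barcodes quantified by deep sequencing of PCR amplicons from cellular DNA, counts expressed as percent of each subpool, ratio averaged over two biological duplicates.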

What follows are sequences tested on NB7 (assay: fold depletion of shRNA, plasmid library share / infected cells without Dox share (9 days) (ratio); higher = more depleted after infection (more toxic, leaky expression from a Tet-inducible vector; NB7 is a neuroblastoma line without caspase-8)). Conditions: shRNA pool: CD95L ORF + CD95L 3'UTR + Venus libraries.
CTTGTGATCAATGAAACTGGG was tested, and the “fold depletion of shRNA” value was 0.845. For CTTGTGATGTTTTTCATGGTT, the “fold depletion of shRNA” value was 0.968. With CTTTCAGATACATGGTTGTGA the “fold depletion of shRNA” value was 3.54. For CTTTCCATTATGATTCTTTGT, the “fold depletion of shRNA” value was 0.909. CTTTCTGGAGTGAAGTATAAG was tested, and the “fold depletion of shRNA” value was 1.01. With CTTTGGAGAAGCAAATAGGCC the “fold depletion of shRNA” value was 1.23. For CTTTGGGATTCTTTCCATTAT, the “fold depletion of shRNA” value was 1.76. In the case of CTTTGTATATTCCAAAGTATA, the “fold depletion of shRNA” value is reported as 0.374. In the case of CTTTGTTACAGGCACCGAGAA, the “fold depletion of shRNA” value is reported as 2.88. In the case of CTTTTAACTCACCTCTCAAGG, the “fold depletion of shRNA” value is reported as 4.21. For GAAAAAAAGGAGCTGAGGAAA, the “fold depletion of shRNA” value was 0.675. GAAAAAGCAGCTACCAGGTGT was tested, and the “fold depletion of shRNA” value was 1.53. In the case of GAAAACATGTAATAAAAAGTA, the “fold depletion of shRNA” value is reported as 0.801. With GAAAAGGAAGACTAGAGGCTT the “fold depletion of shRNA” value was 1.18. With GAAAAGGACACCTTTTAACTC the “fold depletion of shRNA” value was 0.327. GAAAATATGGGTTGCATTTGG was tested, and the “fold depletion of shRNA” value was 1.07. For GAAACTAACAGATAAGCAAGA, the “fold depletion of shRNA” value was 1.15. In the case of GAAACTGGGCTGTACTTTGTA, the “fold depletion of shRNA” value is reported as 0.546. For GAAAGAGGCCAATGCCCCACT, the “fold depletion of shRNA” value was 0.561. With GAAAGTGGCCCATTTAACAGG the “fold depletion of shRNA” value was 1.61. GAAATGAAAACATGTAATAAA was tested, and the “fold depletion of shRNA” value was 0.619. With GAACACCCCCATCGGCGACGG the “fold depletion of shRNA” value was 0.699. With GAACATAGAACTCTGGGCTGC the “fold depletion of shRNA” value was 2.55. With GAACCAAGTGGACCTTGAGAC the “fold depletion of shRNA” value was 1.19. With GAACCACAGCACAGGCCTGTG the “fold depletion of shRNA” value was 0.511. With GAACCGCATCGAGCTGAAGGG the “fold depletion of shRNA” value was 1.38. In the case of GAACGGCATCAAGGCCAACTT, the “fold depletion of shRNA” value is reported as 0.609. GAACTCCGAGAGTCTACCAGC was tested, and the “fold depletion of shRNA” value was 3.85. In the case of GAACTCTAAGTATCCCCAGGA, the “fold depletion of shRNA” value is reported as 2.78. GAACTCTGGGCTGCCATGTGA was tested, and the “fold depletion of shRNA” value was 1.04. In the case of GAAGAACGGCATCAAGGCCAA, the “fold depletion of shRNA” value is reported as 2.14. With GAAGACACCTATGGAATTGTC the “fold depletion of shRNA” value was 0.876. In the case of GAAGACATGAACCAAGTGGAC, the “fold depletion of shRNA” value is reported as 4. For GAAGAGAGGGAACCACAGCAC, the “fold depletion of shRNA” value was 1.82. For GAAGAGGGAGAAGCATGAAAA, the “fold depletion of shRNA” value was 1.26. In the case of GAAGATGATGAGCTACTGCAC, the “fold depletion of shRNA” value is reported as 1.74. With GAAGCAAATAGGCCACCCCAG the “fold depletion of shRNA” value was 0.968. With GAAGCAGCACGACTTCTTCAA the “fold depletion of shRNA” value was 2.14. GAAGCATGAAAAAGCAGCTAC was tested, and the “fold depletion of shRNA” value was 1.11. For GAAGCGCGATCACATGGTCCT, the “fold depletion of shRNA” value was 0.568. GAAGCTGATCTGCACCACCGG was tested, and the “fold depletion of shRNA” value was 0.651. GAAGGCCTGGTCAAAGGAGGC was tested, and the “fold depletion of shRNA” value was 0.683. GAAGGCTACGTCCAGGAGCGC was tested, and the “fold depletion of shRNA” value was 0.488. With GAAGGGTGGCCTTGTGATCAA the “fold depletion of shRNA” value was 0.545. In the case of GAAGTACATATTAGGAAAATA, the “fold depletion of shRNA” value is reported as 0.509. In the case of GAAGTATAAGAAGGGTGGCCT, the “fold depletion of shRNA” value is reported as 1.68. With GAAGTTCGAGGGCGACACCCT the “fold depletion of shRNA” value was 1.03.

Same assay, conditions: shRNA pool: CD95 ORF + CD95 3'UTR + Venus libraries
CTTGGTTTTTTACTGGGTACA was tested, and the “fold depletion of shRNA” value was 0.296. For CTTGTCATACCCCCAAGTTTC, the “fold depletion of shRNA” value was 2.06. With CTTGTGTTTGGAATTATAAAA the “fold depletion of shRNA” value was 0.907. CTTTAAATCCTGAAACAGTGG was tested, and the “fold depletion of shRNA” value was 0.828. CTTTGAAAGTTTGTATTAAAT was tested, and the “fold depletion of shRNA” value was 0.939. For CTTTGCACAGTTTATTGGTGT, the “fold depletion of shRNA” value was 2.08. CTTTGCCACCTCTCCATTTTT was tested, and the “fold depletion of shRNA” value was 0.471. In the case of CTTTGCCTCTAAATTACCTCT, the “fold depletion of shRNA” value is reported as 1. For CTTTGTACTCTTGCAGAGAAA, the “fold depletion of shRNA” value was 0.709. CTTTGTCTTCTTCTTTTGCCA was tested, and the “fold depletion of shRNA” value was 0.794. With CTTTGTTCGAAAGAATGGTGT the “fold depletion of shRNA” value was 1.07. In the case of CTTTGTTTATAACTCTGAGAA, the “fold depletion of shRNA” value is reported as 0.54. In the case of CTTTTGCCAATTCCACTAATT, the “fold depletion of shRNA” value is reported as 1.08. CTTTTGCTGAAATATCAGTTA was tested, and the “fold depletion of shRNA” value was 1.19. In the case of CTTTTTTTGTAACTCTACTGT, the “fold depletion of shRNA” value is reported as 0.8. For GAAAAACAACAAATTCAGTTC, the “fold depletion of shRNA” value was 1.03. In the case of GAAAACAAACTTCATCAAGAG, the “fold depletion of shRNA” value is reported as 1.41. In the case of GAAAACATGCAGAAAGCACAG, the “fold depletion of shRNA” value is reported as 0.558. For GAAAACATTAAATTATAATGT, the “fold depletion of shRNA” value was 0.906. With GAAAAGATTCTTAATAGCTGG the “fold depletion of shRNA” value was 0.939. With GAAAATGTTCAATAATGTCCC the “fold depletion of shRNA” value was 1.35. For GAAAATTCAAACTTCAGAAAT, the “fold depletion of shRNA” value was 0.65. In the case of GAAAATTCAGACTATCATCCT, the “fold depletion of shRNA” value is reported as 3.61. In the case of GAAACAGTGGCAATAAATTTA, the “fold depletion of shRNA” value is reported as 1.12. GAAAGAAAGAAGCGTATGACA was tested, and the “fold depletion of shRNA” value was 1.38. In the case of GAAAGAAGCGTATGACACATT, the “fold depletion of shRNA” value is reported as 2.22. With GAAAGAATGGTGTCAATGAAG the “fold depletion of shRNA” value was 1.16. In the case of GAAAGATTAAGATTATGCTCT, the “fold depletion of shRNA” value is reported as 1.19. GAAAGCACAGAAAGGAAAACC was tested, and the “fold depletion of shRNA” value was 1.61. For GAAAGGAAAACCAAGGTTCTC, the “fold depletion of shRNA” value was 0.915. In the case of GAAAGGAAAGCTAGGGACTGC, the “fold depletion of shRNA” value is reported as 2.08. For GAAAGGAAGTACAGAAAACAT, the “fold depletion of shRNA” value was 0.752. In the case of GAAAGTAGCTTTGTGACATGT, the “fold depletion of shRNA” value is reported as 0.886. For GAAAGTTCAACTGCTTCGTAA, the “fold depletion of shRNA” value was 1.43. GAAAGTTTGTATTAAATGTGA was tested, and the “fold depletion of shRNA” value was 0.976. For GAAATAAACTGCACCCGGACC, the “fold depletion of shRNA” value was 0.489. In the case of GAAATAATATTTATATTTCTG, the “fold depletion of shRNA” value is reported as 0.988. GAAATATCACCAAAAAATACT was tested, and the “fold depletion of shRNA” value was 1.03. GAAATATCAGTTACTGAACAG was tested, and the “fold depletion of shRNA” value was 2.06. GAAATCCAAAGCTTGGTCTAG was tested, and the “fold depletion of shRNA” value was 1.68. With GAAATGAAATCCAAAGCTTGG the “fold depletion of shRNA” value was 0.982. With GAAATTCTAGCCTGGTTTGGA the “fold depletion of shRNA” value was 1.21. GAACACCCCCATCGGCGACGG was tested, and the “fold depletion of shRNA” value was 0.657. GAACACTGTGACCCTTGCACC was tested, and the “fold depletion of shRNA” value was 1.58. In the case of GAACAGAAAGTTCAACTGCTT, the “fold depletion of shRNA” value is reported as 2.53. GAACATGGAATCATCAAGGAA was tested, and the “fold depletion of shRNA” value was 1.29. GAACCACCTAAAGAACTTCCA was tested, and the “fold depletion of shRNA” value was 1.01. For GAACCAGACTGCGTGCCCTGC, the “fold depletion of shRNA” value was 0.632. In the case of GAACCCATGTTTGCAATCAAA, the “fold depletion of shRNA” value is reported as 2.48. GAACCGCATCGAGCTGAAGGG was tested, and the “fold depletion of shRNA” value was 0.902. GAACGGCATCAAGGCCAACTT was tested, and the “fold depletion of shRNA” value was 0.777. GAACTTCCATTTATGGAGGAT was tested, and the “fold depletion of shRNA” value was 1.79. With GAACTTGGAAGGCCTGCATCA the “fold depletion of shRNA” value was 1.48. In the case of GAAGAACGGCATCAAGGCCAA, the “fold depletion of shRNA” value is reported as 0.96. For GAAGACTGTTACTACAGTTGA, the “fold depletion of shRNA” value was 1.8. In the case of GAAGAGAAAGGAAGTACAGAA, the “fold depletion of shRNA” value is reported as 1.03. GAAGATAGTTATAAACTGAAG was tested, and the “fold depletion of shRNA” value was 0.646. For GAAGATCATATTTATGTAAAG, the “fold depletion of shRNA” value was 0.766. GAAGATGTAGATTGTGTGATG was tested, and the “fold depletion of shRNA” value was 5.73. With GAAGCAGATACCTGGAACCAC the “fold depletion of shRNA” value was 1.49. With GAAGCAGCACGACTTCTTCAA the “fold depletion of shRNA” value was 2.65. With GAAGCCAAAATAGATGAGATC the “fold depletion of shRNA” value was 1.11. With GAAGCGCGATCACATGGTCCT the “fold depletion of shRNA” value was 0.582. With GAAGCGTATGACACATTGATT the “fold depletion of shRNA” value was 0.858. GAAGCTATGACCTTTTGCTGA was tested, and the “fold depletion of shRNA” value was 1.82. GAAGCTGATCTGCACCACCGG was tested, and the “fold depletion of shRNA” value was 0.644. In the case of GAAGGAGTACACAGACAAAGC, the “fold depletion of shRNA” value is reported as 1.02. With GAAGGCCTGCATCATGATGGC the “fold depletion of shRNA” value was 30.1. GAAGGCTACGTCCAGGAGCGC was tested, and the “fold depletion of shRNA” value was 1.4. GAAGGGAAGGAGTACACAGAC was tested, and the “fold depletion of shRNA” value was 0.573. For GAAGTACAGAAAACATGCAGA, the “fold depletion of shRNA” value was 1.16. In the case of GAAGTGGAAATAAACTGCACC, the “fold depletion of shRNA” value is reported as 1.3. For GAAGTTCGAGGGCGACACCCT, the “fold depletion of shRNA” value was 0.672.
